# Test results taken from PubChem BioAssay (Tox21).
# Several values for one entry are separate records, joined by “and”; a condition that tells them apart may be missing. Equal entries are not always repeated. Activity calls are given as the source filed them. Unless noted, the call rests on the fitted dose curve; in most records, active means well fitted curve in the direction sought with a large enough effect in the repeat runs; inconclusive means weak or mixed curves; inactive means no such curve, though single readings can be large; an effect the other way counts as inactive or inconclusive.
# Key:
# [1] = qHTS assay for small molecule agonists of the p53 signaling pathway (AID 651631; calls by dose curve; further: nearly all actives have a fitted effect of over 15% in size; on activation: on the % scale 0 is the no-effect control and ±100 the full control effect); conditions: HCT-116 p53RE-bla reporter, beta-lactamase FRET ratio, 16 h; activation: at 73.3 µM (top of the series) unless noted
# Method in brief: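 Quantitative high-throughput format: 4,000 p53RE-bla HCT-116 cells/well, 5 h pre-incubation, 16 h compound exposure at 37 °C, 2 h room-temperature substrate step, fluorescence intensity measured.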
# [2] = qHTS assay for small molecule disruptors of the mitochondrial membrane potential (AID 720635); conditions: HepG2 mitochondrial membrane potential, Mito-MPS dye ratio; on ratio activity, negative = MMP loss: on the % scale 0 is the no-effect control and ±100 the full control effect
# Method in brief: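 HepG2 cells exposed to compound 1 hr at 37C, then Mito-MPS dye 30 min. Ratio read of aggregate (540/590 nm) versus monomer (490/535 nm) fluorescence.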
# [3] = molecular target: Glucocorticoid receptor (Homo sapiens) (UniProt P04150); experiment: qHTS assay to identify small molecule agonists of the glucocorticoid receptor (GR) signaling pathway (AID 720691; active means well fitted activation curve with a large enough effect in the signal ratio in the repeat runs, not every such curve was filed as active; inconclusive means weak or mixed curves, or effect the other way; inactive means no such curve, though single readings can be large or run the other way; the % refers to the signal ratio; on activation: on the % scale 0 is the no-effect control and ±100 the full control effect); conditions: GR-bla HeLa, beta-lactamase reporter ratio, 18 h; activation: at 62.4 µM (top of the series) unless noted
# Method in brief: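 Cells: GR-bla HeLa, endogenous GR with stably integrated GRE-beta-lactamase reporter. Treatment 18 h, 37 C, compounds delivered in DMSO. Detection via LiveBLAzer B/G FRET substrate, 2 h RT, fluorescence intensity.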
# [4] = molecular target: Glucocorticoid receptor (Homo sapiens) (UniProt P04150); experiment: qHTS assay to identify small molecule antagonists of the glucocorticoid receptor (GR) signaling pathway (AID 720692; active means well fitted inhibition curve with a large enough effect in the signal ratio in the repeat runs, not every such curve was filed as active; inconclusive means weak or mixed curves, or effect the other way; inactive means no such curve, though single readings can be large or run the other way; the % refers to the signal ratio; on activity change, negative = inhibition: on the % scale 0 is the no-effect control and ±100 the full control effect); conditions: GR-bla HeLa, beta-lactamase FRET ratio, dexamethasone-stimulated, 18 h
# Method in brief: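 Quantitative HTS in antagonist format: HeLa cells expressing endogenous GR and a stably integrated GRE-bla reporter, stimulated with 5 nM dexamethasone (final) alongside test compounds for 18 h.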
# [5] = qHTS assay to identify small molecule antagonists of the glucocorticoid receptor (GR) signaling pathway - cell viability counter screen (AID 720693); conditions: GR-bla HeLa viability, CellTiter-Glo luminescence, 18 h, with 5 nM dexamethasone present; viability change, negative = cytotoxic: at 58.5 µM (top of the series); further: nearly all actives have a fitted effect of over 55% in size
# [6] = ratio activity, negative = MMP loss: at 83.2 µM (top of the series) unless noted
# [7] = activity change, negative = inhibition: at 58.5 µM (top of the series) unless noted
# Potency means the concentration at half of the fitted maximal effect; tags describe the fitted curve by direction and shape or compound fluorescence and quenching.
# Chain of UniProt P04150 (P04150 whole entry, looked up): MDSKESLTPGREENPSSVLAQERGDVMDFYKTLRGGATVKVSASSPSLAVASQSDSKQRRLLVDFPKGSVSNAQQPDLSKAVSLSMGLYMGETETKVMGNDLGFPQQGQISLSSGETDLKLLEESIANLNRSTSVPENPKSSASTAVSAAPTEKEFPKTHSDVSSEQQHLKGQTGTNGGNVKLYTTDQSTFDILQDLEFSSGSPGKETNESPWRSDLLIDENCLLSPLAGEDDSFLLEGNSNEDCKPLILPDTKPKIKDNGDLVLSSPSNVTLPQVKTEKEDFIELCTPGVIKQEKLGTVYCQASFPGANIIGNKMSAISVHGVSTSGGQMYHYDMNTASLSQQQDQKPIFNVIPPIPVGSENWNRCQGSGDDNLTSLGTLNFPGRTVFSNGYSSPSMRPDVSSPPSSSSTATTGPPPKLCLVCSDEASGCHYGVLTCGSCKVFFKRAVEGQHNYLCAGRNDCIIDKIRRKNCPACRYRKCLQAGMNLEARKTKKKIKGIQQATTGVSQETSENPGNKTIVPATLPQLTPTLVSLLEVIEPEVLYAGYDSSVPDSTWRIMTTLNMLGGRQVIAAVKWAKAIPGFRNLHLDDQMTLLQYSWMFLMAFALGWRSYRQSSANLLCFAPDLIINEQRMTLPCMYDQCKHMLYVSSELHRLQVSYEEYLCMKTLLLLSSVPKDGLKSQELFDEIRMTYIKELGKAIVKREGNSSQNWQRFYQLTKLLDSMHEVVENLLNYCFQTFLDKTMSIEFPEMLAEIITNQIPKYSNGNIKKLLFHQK
smiles,measurement,setting,value
O=C(O)CNC(=O)c1ccccc1I,activation,[1],inconclusive: -1.65%
same,Potency,[2]; [6],"inconclusive: 33.5 µM [inhibitor, single point]"
CC1=C(C(=O)O)N2C(=O)[C@@H](NC(=O)[C@H](N)c3ccc(O)cc3)[C@H]2SC1,Potency,[1],"inconclusive: 14.3 µM [activator, single point]"
same,Potency,[2]; [6],inactive
CCC(COC(=O)CCS)(COC(=O)CCS)COC(=O)CCS,Potency,[1],active: 68.6 µM
same,"ratio activity, negative = MMP loss",[2]; [6],inconclusive: 46.9%
Nc1ccc(S(=O)(=O)Nc2ccccc2)cc1,Potency,[1],inactive
same,Potency,[2]; [6],inactive
COc1nc(C)nc(NC(=O)NS(=O)(=O)c2ccccc2OCCCl)n1,Potency,[1],inactive
same,Potency,[2]; [6],inactive
C=CCOCC(O)CCl (centres undefined),activation,[1],inconclusive: 8.02%
same,Potency,[2]; [6],"inconclusive: 61.1 µM [inhibitor, partial curve, poor fit]"
O=Cc1c(Cl)cccc1Cl,Potency,[1],"inconclusive: 56.4 µM [activator, partial curve, poor fit]"
same,Potency,[2]; [6],"inconclusive: 0.632 µM [inhibitor, partial curve, poor fit]"
CN1C[C@@H]2C[C@H]1CN2c1cc2c(cc1F)c(=O)c(C(=O)O)cn2C1CC1,Potency,[1],"inconclusive: 29.8 µM [activator, partial curve, poor fit]"
same,Potency,[2]; [6],"inconclusive: 7.5 µM [activator, full curve]"
Cc1cc(S(=O)(=O)O)ccc1N=Nc1c(O)ccc2ccccc12,Potency,[1],"inconclusive: 77 µM [rising, single point]"
same,Potency,[2]; [6],inconclusive: 54.5 µM [activator]
O=NN(CCCl)C(=O)NC1CCCCC1,activation,[1],inconclusive: -1.85%
same,Potency,[2]; [6],inactive
CC(C)(C)NCC(O)COc1cccc2c1CCC(=O)N2 (centres undefined),Potency,[1],inactive
same,"ratio activity, negative = MMP loss",[2]; [6],inconclusive: -27% [at 39.1 µM]
CC1CCC(C(C)(C)S)C(=O)C1 (centres undefined),Potency,[1],inactive
same,Potency,[2]; [6],inactive
CCC(=O)C(=O)CC,Potency,[1],inactive
same,"ratio activity, negative = MMP loss",[2]; [6],inconclusive: -36.9% [at 95.3 µM]
Cc1ccc(C)c(C)c1,Potency,[1],inactive
same,"ratio activity, negative = MMP loss",[2]; at 83.2 µM (top of the series),inactive: 5.31%
same,"ratio activity, negative = MMP loss",[2]; [6],inconclusive: 6.68% [at 95.3 µM]
same,Potency,[3],inactive
same,"activity change, negative = inhibition",[4]; [7],inconclusive: 22%
same,"activity change, negative = inhibition",[4]; at 78.9 µM (top of the series),inactive: 3.37%
CCCCCC=CCC=CCCCCCCCC(=O)OCC,Potency,[1],inactive
same,Potency,[2]; [6],inactive
CCCCCC[C@@H](CCC)C(=O)O,Potency,[1],"inconclusive: 26.6 µM [activator, partial curve, poor fit]"
same,Potency,[2]; [6],inactive
CC(=O)[C@H]1CC[C@H]2[C@@H]3C=CC4=CC(=O)CC[C@@]4(C)[C@@H]3CC[C@]12C,Potency,[1],"inconclusive: 14.3 µM [falling, single point]"
same,Potency,[2]; [6],"inconclusive: 12.7 µM [activator, single point]"
same,Potency,[3],active: 0.0007 µM
same,Potency,[4]; [7],active: 1.82 µM
O=Cc1ccc(Cl)c([N+](=O)[O-])c1,Potency,[1],"inconclusive: 15.4 µM [activator, single point]"
same,"ratio activity, negative = MMP loss",[2]; [6],inconclusive: -32.5%
same,activation,[3],inconclusive: 6.89% [phenotype inactive]
same,"activity change, negative = inhibition",[4]; [7],inconclusive: 38.2%
CC[N+](CC)(CC)CCOc1ccc(/C=C/c2ccccc2)cc1,Potency,[1],"inconclusive: 33.5 µM [falling, partial curve, poor fit] and inconclusive: 26.6 µM [falling, partial curve, poor fit]"
same,"ratio activity, negative = MMP loss",[2]; at 83.2 µM (top of the series),inactive: -19.8%
same,"ratio activity, negative = MMP loss",[2]; [6],inconclusive: 0.85%
same,"activity change, negative = inhibition",[4]; [7],inconclusive: -6.44%
NC(=O)N(O)[C@@H]1C=C[C@H](Oc2cccc(Oc3ccc(F)cc3)c2)C1,activation,[1],inconclusive: 6.93%
same,Potency,[2]; [6],inconclusive: 68.6 µM [inhibitor]
same,Potency,[4]; [7],inconclusive: 49 µM
O=C(NC(Cc1cc(=O)[nH]c2ccccc12)C(=O)O)c1ccc(Cl)cc1 (centres undefined),Potency,[1],inactive
same,Potency,[2]; [6],"inconclusive: 16.8 µM [fluorescent, partial curve, poor fit]"
same,"activity change, negative = inhibition",[4]; [7],inconclusive: 8.53%
CC(=O)S[C@@H]1CC2=CC(=O)CC[C@]2(C)[C@H]2CC[C@@]3(C)[C@@H](CC[C@@]34CCC(=O)O4)[C@H]12,Potency,[1],active: 17.2 µM
same,Potency,[2]; [6],"inconclusive: 3.35 µM [activator, full curve] and inconclusive: 27.3 µM [activator, full curve]"
same,activation,[3],inconclusive: -12.3% and inconclusive: -14%
same,Potency,[4]; [7],active: 5.35 µM and inconclusive: 24.5 µM
same,Potency,[5],"inconclusive: 23.9 µM [cytotoxic, single point]"
CC(=O)OCC(=O)[C@@]1(OC(C)=O)[C@@H](C)C[C@H]2[C@@H]3C[C@H](F)C4=CC(=O)C=C[C@]4(C)[C@@]3(F)[C@@H](O)C[C@@]21C,Potency,[1],inactive
same,Potency,[2]; [6],inconclusive: 26.6 µM [inhibitor]
same,Potency,[3],active: 0.0379 µM [inconclusive]
same,Potency,[4]; [7],"inconclusive: 0.0134 µM [activator, full curve]"
CCOc1ccccc1O[C@H](c1ccccc1)[C@H]1CNCCO1,Potency,[1],"inconclusive: 4.22 µM [falling, full curve, poor fit]"
same,Potency,[2]; [6],"inconclusive: 5.96 µM [activator, full curve]"
same,Potency,[3],inactive
CC1=NC(C)OC1C (centres undefined),activation,[1],inconclusive: 6.25%
same,Potency,[2]; [6],inactive
same,Potency,[4]; [7],active: 34.7 µM
